Reference: the supplement of paper PMC12217912
This is one part of the list. The full chains were built here from the parent and the listed change. Inactive controls read about 0.05.

B1: TEV protease; numbered along this chain (parent)
chain: MGESLFKGPRDYNPISSSICHLTNESDGHTTSLYGIGFGPFIITNKHLFRRNNGTLVVQSLHGVFKVKDTTTLQQHLVDGRDMIIIRMPKDFPPFPQKLKFREPQREERICLVTTNFQTKSMSSMVSDTSCTFPSGDGIFWKHWIQTKDGQCGSPLVSTRDGFIVGIHSASNFTNTNNYFTSVPKNFMELLTNQEAQQWVSGWRLNADSVLWGGHKVFMVKPEEPFQPVKEATQL

Variants of: B1
Experiment: raw area under fraction-flipped curve 0-4 h after induction (AUC4h, not background-subtracted), DNA-recorder readout of cleavage of the substrate (dimensionless); higher = more cleavage of the substrate by the protease variant
Conditions: temperature: 34 °C; time window: 0-4 h after rhamnose induction
Protocol: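 In vivo DNA recorder in E. coli TOP10(DE3) ΔrhaA at 34 °C. Each TEVp single-site mutant (parent TEVp 0) is paired with a single-site variant of the 7-mer TEVs (canonical ENLYFQ|S). The substrate sits between flexible linkers in a Bxb1-sfGFP-TEVs-SsrA fusion, so cleavage stabilises Bxb1 and speeds flipping of a recombination array, read by NGS. The value is the raw area under the fraction-flipped curve over 0-4 h after rhamnose induction (AUC4h), with ≥20 reads per time point. It is not background-subtracted; inactive controls average about 0.047.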
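Also: Bxb1 expression induced with 0.2% (w/v) L-rhamnose at OD600 near 0.5, cultures sampled hourly, flipped fraction per protease–substrate barcode pair counted by paired-end Illumina sequencing.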

Variant | area with substrate CNLYFQS | area with substrate HNLYFQS | area with substrate LNLYFQS | area with substrate SNLYFQS | area with substrate WNLYFQS | area with substrate INLYFQS | area with substrate MNLYFQS | area with substrate TNLYFQS | area with substrate VNLYFQS | area with substrate YNLYFQS
L235I | 0.07 | 0.076 | 0.0692 | 0.0545 | 0.0191 | – | – | – | – | –
Q59T | 0.0747 | 0.0682 | – | 0.0555 | 0.0533 | 0.0714 | 0.073 | 0.0403 | 0.0686 | 0.0717
Q197E | 0.0732 | 0.052 | – | – | 0.0607 | – | – | 0.0492 | – | –
I110P | 0.0538 | 0.0527 | – | 0.0623 | 0.0575 | – | – | – | – | 0.0631
F38D | 0.039 | – | – | – | – | – | – | – | – | –
E195G | 0.0618 | 0.0596 | – | – | 0.0395 | – | 0.0687 | 0.0784 | 0.0773 | –
T174V | 0.0712 | 0.0598 | – | 0.0586 | – | – | 0.0625 | – | 0.0649 | 0.0475
K7I | 0.0639 | – | 0.0576 | – | 0.0606 | – | 0.0762 | 0.0606 | 0.0705 | 0.0743
G153E | 0.0481 | 0.0516 | 0.0417 | 0.0686 | – | 0.0487 | – | – | 0.0523 | 0.0393
N186Q | 0.0619 | – | 0.0786 | – | 0.0766 | 0.0714 | – | – | 0.0406 | –
G214Q | 0.0556 | – | – | 0.054 | – | – | – | – | 0.0465 | 0.0585
N172F | 0.0681 | 0.0657 | 0.0545 | – | 0.035 | – | – | 0.0504 | 0.0599 | –
D91L | 0.0749 | 0.0719 | 0.0658 | 0.0711 | 0.0662 | – | 0.0717 | 0.0616 | – | 0.0577
L235S | 0.101 | 0.0652 | – | 0.0561 | 0.061 | – | 0.0655 | 0.0724 | – | 0.051
F180A | 0.0646 | – | 0.046 | 0.104 | 0.0596 | – | – | 0.0533 | – | 0.0512
E103F | 0.0643 | 0.0619 | 0.0808 | – | – | – | 0.0853 | – | – | –
Y34K | 0.0741 | – | 0.0714 | 0.0473 | – | – | – | – | – | 0.0529
Y179V | 0.0758 | 0.0606 | – | 0.0909 | 0.0596 | 0.0483 | 0.06 | – | – | –

Variant | area with substrate CNLYFQS | area with substrate HNLYFQS | area with substrate LNLYFQS | area with substrate SNLYFQS | area with substrate WNLYFQS | area with substrate INLYFQS | area with substrate MNLYFQS | area with substrate TNLYFQS | area with substrate VNLYFQS | area with substrate YNLYFQS
N206E | 0.0672 | 0.0583 | 0.0807 | 0.0727 | 0.0652 | 0.0613 | 0.0865 | 0.0706 | – | 0.0659
I84Q | 0.055 | 0.0514 | 0.0542 | 0.0735 | 0.0432 | 0.0555 | 0.0656 | 0.0646 | – | –
E189R | 0.0649 | 0.0446 | 0.0597 | 0.0645 | 0.0531 | 0.0567 | – | 0.0608 | 0.0601 | 0.0672
E231P | 0.0471 | – | 0.0622 | 0.0647 | – | – | – | – | – | –
T115D | – | 0.0618 | – | 0.066 | 0.0569 | 0.067 | 0.0562 | – | – | 0.0646
N53E | – | 0.0488 | – | 0.0655 | 0.0597 | 0.0877 | – | 0.0947 | 0.0755 | –
K221M | – | 0.0561 | – | 0.0621 | 0.0598 | 0.0628 | 0.0608 | 0.0582 | 0.058 | 0.043
P14Q | – | – | 0.0642 | 0.0647 | 0.0563 | – | 0.0537 | 0.0608 | – | 0.0602
I42T | – | 0.0474 | 0.0504 | – | 0.0614 | 0.0536 | – | 0.0569 | – | 0.0576
H143I | – | – | 0.0518 | 0.0689 | – | – | – | – | – | 0.0591
P93H | – | 0.06 | – | 0.0677 | 0.0687 | 0.0368 | 0.0626 | 0.0622 | – | –
T55K | – | 0.0711 | 0.0819 | 0.0567 | 0.0512 | 0.0618 | 0.0649 | 0.0744 | – | 0.0644
Q197P | – | 0.0679 | 0.0719 | 0.0704 | 0.0659 | – | 0.0725 | – | – | –
K120M | – | 0.063 | 0.0631 | 0.0606 | 0.0531 | – | – | – | 0.0408 | 0.0677
L211F | – | 0.0682 | 0.0715 | 0.0689 | – | – | – | 0.0553 | 0.0617 | 0.0502
V157Y | – | 0.0134 | 0.0688 | 0.0414 | 0.0423 | 0.0503 | 0.0629 | 0.0605 | 0.0752 | 0.0511
V157M | – | 0.0614 | – | 0.0671 | 0.0602 | 0.0634 | 0.0661 | 0.0584 | 0.0486 | 0.0487

Same assay, conditions: temperature: 34 °C; time window: 0-4 h after rhamnose induction

Variant | area with substrate FNLYFQS | area with substrate GNLYFQS | area with substrate PNLYFQS | area with substrate KNLYFQS | area with substrate NNLYFQS | area with substrate QNLYFQS | area with substrate RNLYFQS | area with substrate DNLYFQS
Q197E | 0.0607 | 0.0532 | 0.027 | – | – | – | – | –
I110P | 0.0558 | – | – | – | – | – | – | –
F38D | – | – | 0.0487 | – | – | – | – | –
E195G | – | 0.0635 | 0.0536 | 0.0621 | – | – | – | –
T174V | – | 0.0776 | – | 0.0543 | 0.0569 | – | – | –
G153E | 0.0617 | – | – | – | 0.0503 | – | – | –
N186Q | 0.0683 | – | 0.0608 | – | 0.0496 | – | – | –
D91L | – | 0.0615 | 0.0679 | – | – | 0.114 | – | –
L235S | 0.0657 | – | 0.0761 | – | – | – | – | –
F180A | – | – | 0.08 | 0.0613 | 0.051 | – | 0.0526 | –
E103F | 0.0588 | – | – | – | – | 0.0896 | – | –
Y34K | – | – | 0.066 | – | 0.0592 | – | – | –
Y179V | 0.0621 | 0.0698 | 0.0671 | 0.0761 | 0.0585 | – | – | –
N206E | – | – | 0.0749 | – | 0.0692 | 0.0601 | – | –
I84Q | – | – | 0.0639 | – | 0.0559 | – | – | –
E189R | 0.0674 | – | – | 0.0745 | – | – | – | –

Variant | area with substrate FNLYFQS | area with substrate GNLYFQS | area with substrate PNLYFQS | area with substrate KNLYFQS | area with substrate NNLYFQS | area with substrate QNLYFQS | area with substrate RNLYFQS | area with substrate DNLYFQS
E231P | 0.0705 | – | 0.0468 | – | 0.0639 | 0.0647 | 0.0697 | –
T115D | 0.0672 | 0.0413 | – | 0.0716 | 0.0736 | 0.0571 | 0.0722 | 0.119
N53E | – | – | 0.0624 | 0.0686 | – | – | 0.0487 | 0.0915
K221M | 0.0792 | 0.0783 | – | 0.0663 | – | – | – | 0.0537
P14Q | – | 0.0697 | 0.0733 | 0.0747 | 0.0655 | 0.0766 | 0.0692 | 0.0962
I42T | – | 0.0452 | – | 0.0552 | 0.048 | – | 0.0476 | 0.052
L61S | 0.0519 | 0.0521 | 0.0611 | 0.0804 | – | – | – | 0.0788
H143I | – | 0.0661 | – | 0.0737 | – | – | 0.0581 | 0.0854
P93H | – | 0.0631 | 0.0615 | – | 0.0657 | – | – | 0.0866
T55K | 0.0662 | 0.0536 | 0.0713 | 0.0713 | 0.0621 | 0.0598 | – | 0.0859
Q197P | 0.067 | – | 0.0676 | – | 0.0661 | – | – | 0.0809
K120M | 0.0545 | 0.0874 | 0.0721 | 0.0883 | 0.0686 | – | – | 0.0545
L211F | – | 0.0892 | 0.067 | 0.0499 | – | – | – | 0.0618
V157Y | 0.0651 | 0.058 | – | 0.0596 | – | 0.0562 | – | 0.0706
V157M | 0.083 | 0.0633 | 0.0622 | – | – | – | – | 0.0774
